Hit rate of the full screen: of about 48,000 compounds, about 550 (1.1%) were called active. Another 4% or so got no clear call; they are omitted. Rule as the data show it: active = potency below about 15 µM; inconclusive = mostly about 16 µM to 33 µM; inactive = weaker than that. This is one part of the list.
Potency is read from the fitted curve at half-maximal effect.

UniProt P04062, sequence (P04062 whole entry, looked up): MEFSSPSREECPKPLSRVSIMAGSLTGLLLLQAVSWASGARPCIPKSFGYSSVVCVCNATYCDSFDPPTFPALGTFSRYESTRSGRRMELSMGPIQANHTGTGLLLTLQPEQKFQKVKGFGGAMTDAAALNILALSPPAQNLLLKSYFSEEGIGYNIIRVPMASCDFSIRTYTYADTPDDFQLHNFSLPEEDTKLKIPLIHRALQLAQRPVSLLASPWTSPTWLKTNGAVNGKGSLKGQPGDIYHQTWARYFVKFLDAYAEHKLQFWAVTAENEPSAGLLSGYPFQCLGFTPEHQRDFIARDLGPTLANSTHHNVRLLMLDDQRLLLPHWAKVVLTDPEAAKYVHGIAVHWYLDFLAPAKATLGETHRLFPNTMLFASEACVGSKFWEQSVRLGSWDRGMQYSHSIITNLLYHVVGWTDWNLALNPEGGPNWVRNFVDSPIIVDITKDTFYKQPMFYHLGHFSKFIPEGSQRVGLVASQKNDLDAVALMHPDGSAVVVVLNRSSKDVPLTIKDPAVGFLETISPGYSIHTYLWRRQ

The test addresses Lysosomal acid glucosylceramidase (Homo sapiens) (UniProt P04062). Nature of the test: Glucocerebrosidase.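 Also: the screen sought inhibitors.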 To be noted: purified enzyme, resorufin glucoside fluorescence (screen aimed at inhibitors), 20 min. An outline of the steps:
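Wild-type enzyme at 0.2 nM final in 50mM citric acid/KH2PO4, 10mM sodium taurocholate, 0.01% tween-20, pH 5.9, with resorufin beta-D-glucopyranoside at 30 uM final. Compounds titrated, 20 min at RT, red fluorescence read; AC50 from titration.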
Take `COCCCN1C(=O)C(=O)/C(=C(/O)c2ccc(OC)cc2C)C1c1cccnc1` (centres undefined): the Potency is inactive: > 76.9 µM. On to `CCN(CC)CCn1c(SCC(=O)NCc2ccco2)nc2c(sc3ccccc32)c1=O`, for which the Potency was inactive: > 76.9 µM. For `CS(=O)(=O)N(CC(=O)Nc1cccnc1)c1ccc2c(c1)OCCO2`, the Potency is inactive: > 76.9 µM. Then `O=c1[nH]c(N2CCc3ccccc3C2)nc2c1CCCC2`, with active: 4.56 µM; and `CC(NC(=O)c1ccco1)C(=O)Nc1nc(-c2ccccn2)cs1` (centres undefined), with inactive: > 76.9 µM; and `Cn1c(=O)n(CCc2ccccc2)c(=O)c2c1nc1n2CCN1c1ccccc1`, with inactive: > 76.9 µM. For the compound `COc1cc(C(=O)NCC(c2cccnc2)N2CCN(C)CC2)cc(OC)c1OC` (centres undefined), the Potency was inactive: > 76.9 µM. For `N#Cc1cccc(NC(=O)N2CCC(c3nc4c(nnn4Cc4cccc(Cl)c4)c(=O)[nH]3)CC2)c1` the value was “inactive”; for `CC(=O)c1nnn(-c2nc(N3CCCC3)nc(N(c3ccccc3)c3ccccc3)n2)c1C`, inactive: > 76.9 µM. Take `O=c1nc(NCc2ccco2)sc2ncccc12`: the Potency is inactive: > 76.9 µM. For `COc1ccc(-n2c(=O)c3ccccc3n(CC(=O)NC3CCCCC3)c2=O)c(OC)c1` the value was inactive: > 76.9 µM. On to `CCCn1c(C(O)c2cc(OC)ccc2OC)nc2ccccc21` (centres undefined), for which the Potency is inactive: > 76.9 µM.

Regarding `Cc1ccc(OCC(=O)Nc2ccc3c(c2)nc(CCN2CCOCC2)n3C)cc1`, the Potency was inactive: > 76.9 µM. With `Cc1ccc(C(=O)Nc2c3c(nn2C(C)(C)C)CS(=O)(=O)C3)cc1C`, the Potency was inactive: > 76.9 µM. As for `COc1ccc(NC(=O)CSC2=NC(=O)CC(C)=N2)cc1`, the Potency was inactive: > 76.9 µM. Then `CCOc1ccc(Cl)cc1CSc1n[nH]c(CC)n1`, with inactive: > 76.9 µM; and `COCC(=O)NC(c1ccccc1)c1ccccc1`, with inactive: > 76.9 µM. Then `Cc1cccc(CC2CC(=O)N(c3ccccc3)C2=O)c1` (centres undefined), with inactive: > 76.9 µM; and `COC(=O)c1cccc(NC(=O)Cc2coc3cc(OC)ccc23)c1`, with inactive: > 76.9 µM; and `O=C(CCCCCn1c(SCC(=O)c2ccccc2)nc2ccccc2c1=O)NCc1ccco1`, with inactive: > 76.9 µM. Turning to `CN(C)C(C(=O)NC1CCCCC1)c1ccc(Cl)cc1` (centres undefined), the Potency is inactive: > 76.9 µM.

For the compound `CC(C)n1c(N2CCN(CC(=O)Nc3ccc4c(c3)OCCO4)CC2)nc2ccccc21`, the Potency was inactive: > 76.9 µM. Regarding `COC(=O)c1sccc1NC(=O)CN1CCN(c2ccc(F)cc2)CC1`, the Potency is inactive: > 76.9 µM. With `CCOC(=O)C1=C(C)N(CCO)C(=O)NC1c1ccccc1` (centres undefined), the Potency was inactive: > 76.9 µM.

In the case of `COc1ccccc1NS(=O)(=O)c1ccc(NC(=O)c2nc3ncccn3n2)cc1`, the Potency was inactive: > 76.9 µM. Then `COc1ccccc1N1CCN(CC(=O)Nc2c(C)n[nH]c2C)CC1`, with inactive: > 76.9 µM; and `CCN(CC)CCN1C(=O)C(=O)/C(=C(/O)c2ccncc2)C1c1ccccc1` (centres undefined), with inactive: > 76.9 µM. Then `CCC(=O)c1ccc(OC(=O)c2ccc(Br)o2)cc1`, with inactive: > 76.9 µM.

In the case of `CC(NC(=O)c1ccc(S(=O)(=O)N(C)C)cc1)c1ccccc1` (centres undefined), the Potency is inactive: > 76.9 µM. For `Cc1ccc(N2CC(C(=O)N3CCc4ccccc43)CC2=O)cc1` (centres undefined) the value was inactive: > 76.9 µM. For `Cc1cc(NC(=O)c2noc3c2CCCC3)no1` the value was inactive: > 76.9 µM; for `Cc1ccc(-c2nc(CSCC(=O)N3CCCC3)c(C)o2)cc1`, inactive: > 76.9 µM. For the compound `Cc1ccc(OCCCC(=O)N2CCOCC2)c(C)c1`, the Potency was inactive: > 76.9 µM. As to `Cc1sc2nc(CN(CCc3ccccc3)C(=O)c3ccco3)[nH]c(=O)c2c1C`, the Potency is inactive: > 76.9 µM. Then `CCOC(=O)C1=C(N)OC2=C(C(=O)CCC2)C1c1ccco1` (centres undefined), with inactive: > 76.9 µM; and `O=C(NCc1ccccn1)c1ccc(Cn2cc(Br)cn2)o1`, with inactive: > 76.9 µM. Consider `c1ccc(CSc2ncccn2)cc1`, for which the Potency was inactive: > 76.9 µM. For `O=C1c2cccnc2C(=O)N1c1cccc(-c2nc3ccccc3o2)c1` the value was inactive: > 76.9 µM.

Regarding `Cc1cccc(C)c1NC(=O)CNc1ccccc1`, the Potency is inactive: > 76.9 µM. With `COc1cc2c3c(c1)C1(C(=O)N3C(C)(C)C=C2C)C(C#N)=C(N)Oc2cc(C)oc(=O)c21` (centres undefined), the Potency is inactive: > 76.9 µM.

In the case of `O=C(Nc1cccnc1)c1scc2c1OCCO2`, the Potency is inactive: > 76.9 µM. Then `CS(=O)(=O)N(CC(=O)N1CCCCC1)c1ccc2c(c1)OCO2`, with inactive: > 76.9 µM.

Regarding `COc1ccccc1-c1nnc(SCC(=O)Nc2c(Cl)cccc2Cl)o1`, the Potency is inactive: > 76.9 µM.

In the case of `CC(=O)Nc1c2c(nn1-c1ccc(C)cc1C)CSC2`, the Potency was inactive: > 76.9 µM. For `C=CCOc1ccc(NC(=O)C2CC(=O)N(C(C)C)C2)cc1` (centres undefined) the value was inactive: > 76.9 µM; for `CC(=O)c1cccc(NC(=O)N2CCC(c3nnc(SCC(N)=O)n3C)CC2)c1`, inactive: > 76.9 µM; for `COc1ccccc1N1CCN(C(=O)c2nn(-c3ccccc3OC)c(=O)c3ccccc23)CC1`, inactive: > 76.9 µM. For the compound `CCCCN(CC)Cc1ccc(CNC(=O)Nc2ccc(OC)cc2OC)o1`, the Potency was inactive: > 76.9 µM. For `COC(=O)CN(c1nc(C)cc(OC)n1)S(=O)(=O)c1ccc(C)cc1` the value was inactive: > 76.9 µM; for `O=C1CSC2(CCCCC2)N1CCO`, inactive: > 76.9 µM; for `CC(C)OCCCNC(=O)c1ccc(NC(=O)C2CCCO2)cc1` (centres undefined), inactive: > 76.9 µM. As for `Cc1ccccc1CSCCNC(=O)CN(c1ccc2c(c1)OCO2)S(C)(=O)=O`, the Potency was inactive: > 76.9 µM. For `Cc1ccc(C(=O)CSc2nnc(-c3ccccc3N)n2C)cc1` the value was inactive: > 76.9 µM. Take `CN1CCc2c(sc(/N=C/c3cccs3)c2C(N)=O)C1`: the Potency is inactive: > 76.9 µM.

For the compound `c1coc(CNc2nc(N3CCCCC3)nc3ccccc23)c1`, the Potency was active: 9.65 µM. For `COCCn1c(-c2ccccc2)nc2oc3ccccc3c(=O)c2c1=O` the value was inactive: > 76.9 µM; for `COCC(=O)Nc1ccc(C)c(Cl)c1`, inactive: > 76.9 µM. Then `CCn1c2ccccc2c2cc(C3C(C#N)=C(N)Oc4n[nH]c(COC)c43)ccc21` (centres undefined), with inactive: > 76.9 µM. As for `N#Cc1c2n(c(=S)n(-c3ccccn3)c1=O)CCCCC2`, the Potency is inactive: > 76.9 µM.

As to `O=C(O)CCC(=O)N1CCc2cc(S(=O)(=O)N3CCCCC3)ccc21`, the Potency is inactive: > 76.9 µM. For `Cc1onc(-c2ccccc2)c1C(=O)NC(C)C1CCCO1` (centres undefined) the value was inactive: > 76.9 µM; for `O=C(Nc1ccccc1N1CCN(C(=O)c2ccccc2)CC1)c1cc2ccccc2o1`, inactive: > 76.9 µM. As to `CC1CCC(NC(=O)C2CCN(C(=O)NC3CCCCC3)CC2)CC1` (centres undefined), the Potency is inactive: > 76.9 µM. For `Cc1nn(-c2cc(N3CCCCC3)ccc2N)c(=O)c2ccccc12` the value was inactive: > 76.9 µM; for `CCSc1ccccc1C(=O)N1CCN(c2ccccc2F)CC1`, inactive: > 76.9 µM. For `O=C(O)c1cccnc1-c1ncccc1C(=O)O` the value was “inactive”. Regarding `CCC(=O)N(Cc1ccco1)c1nc(-c2cc(OC)ccc2OC)cs1`, the Potency was inactive: > 76.9 µM. For `COc1ccc2cc(C(c3nnnn3C(C)(C)C)N3CCSCC3)c(=O)[nH]c2c1` (centres undefined) the value was inactive: > 76.9 µM; for `COc1cc(NC(=O)CSc2nnc3n2C(C)(C)Cc2ccccc2-3)cc(OC)c1`, inactive: > 76.9 µM.

In the case of `COCCN1C(=O)C(=O)/C(=C(/O)c2cccc(OC)c2)C1c1ccc(C)o1` (centres undefined), the Potency is inactive: > 76.9 µM. Then `O=C(CN1CCC(c2nc3ccccc3s2)CC1)NCc1cccs1`, with inactive: > 76.9 µM. For `Cc1ccc2c(CC(=O)NCC3COc4ccccc4O3)coc2c1` (centres undefined) the value was inactive: > 76.9 µM; for `CN1CCN(c2nc3c(c(=O)[nH]c(=O)n3C)n2CCCSc2ncccn2)CC1`, inactive: > 76.9 µM; for `CC(C)CC(=O)Nc1ccccc1-c1nnn(CC(=O)N2CCOCC2)n1`, inactive: > 76.9 µM. For the compound `COc1ccc2c(c1)cc1n2CCN2CCCN=C12`, the Potency was inactive: > 76.9 µM.

On to `CCOC(=O)C1CCCN(C(=O)c2cn(C)c3ccc(S(=O)(=O)N4CCCC4)cc3c2=O)C1` (centres undefined), for which the Potency was inactive: > 76.9 µM. Turning to `COC(=O)Nc1ccc(S(=O)(=O)N2CCCC(C(=O)Nc3cccc4c3OCCO4)C2)cc1` (centres undefined), the Potency was inactive: > 76.9 µM. For `O=C(NCC1CCCO1)c1ccccc1-c1nc(-c2ccc(F)cc2)no1` (centres undefined) the value was inactive: > 76.9 µM; for `C=CCn1c(-c2cc(OC)c(OC)c(OC)c2)n[nH]c1=S`, inactive: > 76.9 µM; for `Cc1ccc2c(c1)c1c3n2CC(=C2C(=O)OC(C)(C)OC2=O)NC3CCC1` (centres undefined), inactive: > 76.9 µM.

For `CS(=O)(=O)N1CCc2cc(S(=O)(=O)N3CCN(Cc4ccc5c(c4)OCO5)CC3)ccc21`, the Potency is inactive: > 76.9 µM.

`Cc1ccc(S(=O)(=O)N2CCC(C(=O)O)CC2)cc1C(=O)O`: the Potency is inactive: > 76.9 µM. Then `Cc1ccccc1N(CC(=O)NCC1CCCO1)C(=O)C1(C)CC(=O)N=C2C=CC=CN21` (centres undefined), with inactive: > 76.9 µM; and `COC(=O)CSc1nnc(CNC(=O)c2ccc(S(=O)(=O)N3CCCCC3)cc2)n1C`, with inactive: > 76.9 µM; and `CCCCCn1c(=NC(=O)c2ccco2)c(C(=O)OCC)cc2c(=O)n3ccccc3nc21`, with inactive: > 76.9 µM. Consider `CCOCc1nnc(NS(C)(=O)=O)s1`, for which the Potency is inactive: > 76.9 µM. For `COc1ccc(Cn2c(C3CC3)nc3ccc(NC(=O)C4CC4)cc3c2=O)cc1` the value was inactive: > 76.9 µM; for `Cc1nnc2n(Cc3ccccc3)c(=O)c3c4c(sc3n12)COC(C)(C)C4`, inactive: > 76.9 µM; for `COc1ccccc1NS(=O)(=O)c1ccc(C)c(C(=O)NCC2CCCO2)c1` (centres undefined), inactive: > 76.9 µM.
